One assay relates to OVCAR4. Nature of the assay: log2 surviving fraction (library drug vs vehicle, or drug + carboplatin vs carboplatin alone; relative to plate median); ovarian cancer lines: OVCAR4 is platinum-sensitive and Ov4Carbo platinum-resistant; higher = more cell survival. To be noted: library drug concentration 10 µM, 7 days.
Another assay concerns Ov4Carbo. The description is as above. The conditions noted are these: library drug concentration 10 µM, 7 days.

Where a name gives a salt, the structure may show the parent alone. The list shows a part of the results. Most values come without repeats; read them as rough.

Turning to `N[C@@H](Cc1cc(I)c(Oc2ccc(O)c(I)c2)c(I)c1)C(=O)O` [Liothyronine Sodium], the log2 surviving fraction in the assay with OVCAR4 (carboplatin co-treatment 0 µM) was 0.232; in the assay on OVCAR4 (carboplatin co-treatment 5 µM), -0.418; in the assay on Ov4Carbo (carboplatin co-treatment 0 µM), 0.552; in the assay on Ov4Carbo (carboplatin co-treatment 5 µM), 0.25.

Turning to `Cc1ccc(NC(=O)c2ccc(CN3CCN(C)CC3)cc2)cc1Nc1nccc(-c2cccnc2)n1` [Imatinib (Gleevec)], the log2 surviving fraction was -0.166 in the assay with OVCAR4 (carboplatin co-treatment 0 µM), 0.107 in the assay with OVCAR4 (carboplatin co-treatment 5 µM), 0.00321 in the assay with Ov4Carbo (carboplatin co-treatment 0 µM) and -0.224 in the assay on Ov4Carbo (carboplatin co-treatment 5 µM).

For `O=C(O)/C=C/c1ccc(Cn2ccnc2)cc1` [Ozagrel], the log2 surviving fraction was 0.587 in the assay with OVCAR4 (carboplatin co-treatment 0 µM), -0.0626 in the assay with OVCAR4 (carboplatin co-treatment 5 µM), 0.391 in the assay on Ov4Carbo (carboplatin co-treatment 0 µM) and -0.183 with Ov4Carbo (carboplatin co-treatment 5 µM).

Regarding `NC[C@@H]1O[C@H](O[C@H]2[C@@H](O)[C@H](O[C@@H]3[C@@H](O)[C@H](N)C[C@H](N)[C@H]3O[C@H]3O[C@H](CO)[C@@H](O)[C@H](O)[C@H]3N)O[C@@H]2CO)[C@H](N)[C@@H](O)[C@@H]1O` [Paromomycin Sulfate], the log2 surviving fraction was 0.0345 in the assay with OVCAR4 (carboplatin co-treatment 0 µM), -0.665 in the assay with OVCAR4 (carboplatin co-treatment 5 µM), -0.127 in the assay on Ov4Carbo (carboplatin co-treatment 0 µM) and 0.287 in the assay on Ov4Carbo (carboplatin co-treatment 5 µM).

With `CC(C)C[C@H]1C(=O)N2CCC[C@H]2[C@]2(O)O[C@](NC(=O)[C@@H]3C=C4c5cccc6[nH]c(Br)c(c56)C[C@H]4N(C)C3)(C(C)C)C(=O)N12` [Bromocriptine Mesylate], the log2 surviving fraction was -2.41 with OVCAR4 (carboplatin co-treatment 0 µM), -1.37 in the assay with OVCAR4 (carboplatin co-treatment 5 µM), -3.2 in the assay with Ov4Carbo (carboplatin co-treatment 0 µM) and -1.96 in the assay on Ov4Carbo (carboplatin co-treatment 5 µM).

Take `C=C1CC[C@H](O)C/C1=C/C=C1\CCC[C@]2(C)[C@@H]([C@H](C)CCCC(C)C)CC[C@@H]12` [Vitamin D3 (Cholecalciferol)]: the log2 surviving fraction with OVCAR4 (carboplatin co-treatment 0 µM) was -0.143; in the assay with OVCAR4 (carboplatin co-treatment 5 µM) it was -0.401; in the assay with Ov4Carbo (carboplatin co-treatment 0 µM), -0.657; in the assay with Ov4Carbo (carboplatin co-treatment 5 µM), -0.746.

Consider `COc1ccc(C[C@@H]2c3cc(OC)c(OC)cc3CC[N@+]2(C)CCC(=O)OCCCCCOC(=O)CC[N@@+]2(C)CCc3cc(OC)c(OC)cc3[C@H]2Cc2ccc(OC)c(OC)c2)cc1OC` [Cisatracurium besylate (Nimbex)], for which the log2 surviving fraction with OVCAR4 (carboplatin co-treatment 0 µM) is -0.572; with OVCAR4 (carboplatin co-treatment 5 µM), -0.653; with Ov4Carbo (carboplatin co-treatment 0 µM), -0.81; in the assay with Ov4Carbo (carboplatin co-treatment 5 µM) it was -1.18.

On to `C#C[C@]1(O)CC[C@H]2[C@@H]3CCC4=CC(=O)CC[C@]4(C)[C@H]3CC[C@@]21C` [Ethisterone], for which the log2 surviving fraction with OVCAR4 (carboplatin co-treatment 0 µM) was -0.734; in the assay with OVCAR4 (carboplatin co-treatment 5 µM) it was -0.4; in the assay with Ov4Carbo (carboplatin co-treatment 0 µM), 0.285; with Ov4Carbo (carboplatin co-treatment 5 µM), 0.106.

Regarding `Cc1c(OCC(F)(F)F)ccnc1C[S@@+]([O-])c1nc2ccccc2[nH]1` [Dexlansoprazole], the log2 surviving fraction with OVCAR4 (carboplatin co-treatment 0 µM) is -0.987; with OVCAR4 (carboplatin co-treatment 5 µM), -0.629; in the assay on Ov4Carbo (carboplatin co-treatment 0 µM), -1.34; in the assay on Ov4Carbo (carboplatin co-treatment 5 µM), -0.602.

As to `CCCCCCCCCCCCCCCC[n+]1ccccc1` [Cetylpyridinium Chloride], the log2 surviving fraction with OVCAR4 (carboplatin co-treatment 0 µM) is -9.17; in the assay with OVCAR4 (carboplatin co-treatment 5 µM) it was -7.77; with Ov4Carbo (carboplatin co-treatment 0 µM) it was -8.36; with Ov4Carbo (carboplatin co-treatment 5 µM), -7.68.

With `CC1=C(C(=O)O)N2C(=O)[C@@H](NC(=O)[C@H](N)c3ccccc3)[C@H]2SC1` [Cephalexin (Cefalexin)], the log2 surviving fraction in the assay on OVCAR4 (carboplatin co-treatment 0 µM) was 1.48; with OVCAR4 (carboplatin co-treatment 5 µM) it was 0.732; in the assay on Ov4Carbo (carboplatin co-treatment 0 µM), 0.593; in the assay with Ov4Carbo (carboplatin co-treatment 5 µM), 0.441.

On to `COc1ccc2c(c1)C(=O)N(CCc1ccc(S(=O)(=O)NC(=O)NC3CCCCC3)cc1)C(=O)C2(C)C` [Gliquidone], for which the log2 surviving fraction with OVCAR4 (carboplatin co-treatment 0 µM) is -0.364; in the assay on OVCAR4 (carboplatin co-treatment 5 µM) it was 0.0921; in the assay with Ov4Carbo (carboplatin co-treatment 0 µM) it was -0.437; with Ov4Carbo (carboplatin co-treatment 5 µM), -0.484.

`CC(C(=O)O)c1ccc2c(c1)Cc1cccnc1O2` (configuration not stated) [Pranoprofen]: the log2 surviving fraction with OVCAR4 (carboplatin co-treatment 0 µM) was 1.12; with OVCAR4 (carboplatin co-treatment 5 µM) it was -0.347; in the assay with Ov4Carbo (carboplatin co-treatment 0 µM), -1.16; in the assay on Ov4Carbo (carboplatin co-treatment 5 µM), 0.212.

For `O=C1CC[C@@]2(O)[C@H]3Cc4ccc(O)c5c4[C@@]2(CCN3CC2CC2)[C@H]1O5` [Naltrexone HCl], the log2 surviving fraction is 0.0958 with OVCAR4 (carboplatin co-treatment 0 µM), -0.267 in the assay on OVCAR4 (carboplatin co-treatment 5 µM), -0.341 in the assay with Ov4Carbo (carboplatin co-treatment 0 µM) and -0.184 in the assay with Ov4Carbo (carboplatin co-treatment 5 µM).

For the compound `Nc1nc(=O)c2c([nH]1)NC[C@H](CNc1ccc(C(=O)N[C@@H](CCC(=O)O)C(=O)O)cc1)N2C=O` [Calcium levofolinate (Calcium Folinate)], the log2 surviving fraction was determined as 0.303 with OVCAR4 (carboplatin co-treatment 0 µM), 0.196 in the assay with OVCAR4 (carboplatin co-treatment 5 µM), 0.818 with Ov4Carbo (carboplatin co-treatment 0 µM) and 0.297 in the assay on Ov4Carbo (carboplatin co-treatment 5 µM).

Regarding `CC1(C)S[C@@H]2[C@H](NC(=O)[C@H](N)c3ccccc3)C(=O)N2[C@H]1C(=O)O` [Ampicillin Trihydrate], the log2 surviving fraction with OVCAR4 (carboplatin co-treatment 0 µM) was -0.00397; in the assay with OVCAR4 (carboplatin co-treatment 5 µM), 0.577; in the assay with Ov4Carbo (carboplatin co-treatment 0 µM), 0.52; in the assay with Ov4Carbo (carboplatin co-treatment 5 µM), 0.523.

As to `Clc1ccccc1C(c1ccccc1)(c1ccccc1)n1ccnc1` [Clotrimazole (Canesten)], the log2 surviving fraction was -0.983 in the assay with OVCAR4 (carboplatin co-treatment 0 µM), -1.64 in the assay with OVCAR4 (carboplatin co-treatment 5 µM), -1.01 in the assay on Ov4Carbo (carboplatin co-treatment 0 µM) and -1.78 in the assay with Ov4Carbo (carboplatin co-treatment 5 µM).

Turning to `Cc1cnc(C(=O)O)c[n+]1[O-]` [Acipimox], the log2 surviving fraction with OVCAR4 (carboplatin co-treatment 0 µM) is 0.548; in the assay with OVCAR4 (carboplatin co-treatment 5 µM), 1.77; in the assay on Ov4Carbo (carboplatin co-treatment 0 µM), -1.23; with Ov4Carbo (carboplatin co-treatment 5 µM), 0.636.

In the case of `Cc1[nH]c(=O)c(C#N)cc1-c1ccncc1` [Milrinone (Primacor)], the log2 surviving fraction with OVCAR4 (carboplatin co-treatment 0 µM) was 0.33; with OVCAR4 (carboplatin co-treatment 5 µM), 0.346; with Ov4Carbo (carboplatin co-treatment 0 µM), -0.294; with Ov4Carbo (carboplatin co-treatment 5 µM), -0.262.

For the compound `O=C(c1ccccc1)c1ccc2n1CCC2C(=O)O` (configuration not stated) [Ketorolac (Toradol)], the log2 surviving fraction in the assay with OVCAR4 (carboplatin co-treatment 0 µM) stood at 1.63; in the assay on OVCAR4 (carboplatin co-treatment 5 µM), 0.849; in the assay with Ov4Carbo (carboplatin co-treatment 0 µM) it was 0.589; with Ov4Carbo (carboplatin co-treatment 5 µM), 0.515.

`CCCOc1ccc(C(=O)OCCN(CC)CC)cc1N` [Proparacaine HCl]: the log2 surviving fraction was determined as 0.188 in the assay with OVCAR4 (carboplatin co-treatment 0 µM), 0.216 with OVCAR4 (carboplatin co-treatment 5 µM), 0.291 in the assay on Ov4Carbo (carboplatin co-treatment 0 µM) and 0.427 in the assay on Ov4Carbo (carboplatin co-treatment 5 µM).

Turning to `CC(c1cc2ccccc2s1)N(O)C(N)=O` (configuration not stated) [Zileuton], the log2 surviving fraction in the assay on OVCAR4 (carboplatin co-treatment 0 µM) was 0.0923; with OVCAR4 (carboplatin co-treatment 5 µM), -0.458; in the assay on Ov4Carbo (carboplatin co-treatment 0 µM), -0.0558; with Ov4Carbo (carboplatin co-treatment 5 µM) it was 0.627.

As to `C=C1CC[C@H](O)C/C1=C/C=C1\CCC[C@]2(C)[C@@H]([C@H](C)CCCC(C)(C)O)CC[C@@H]12` [Calcifediol], the log2 surviving fraction was -2.62 in the assay with OVCAR4 (carboplatin co-treatment 0 µM), -2.14 with OVCAR4 (carboplatin co-treatment 5 µM), -1.59 in the assay with Ov4Carbo (carboplatin co-treatment 0 µM) and -1.18 with Ov4Carbo (carboplatin co-treatment 5 µM).

These data come from the supplement of paper PMC8047034.
